Reference: the RNAGym collection of RNA variant scans (doi:10.1093/nar/gkz1192)
Read counts are not given, so values of variants with three or more changes are uncertain.

B1: CPEB3 Ribozyme (parent)
chain: UAACAGGGGGCCACAGCAGAAGCGUUCACGUCGCAGCCCCUGUCAGAUUCUGGUGAAUCUGCGAAUUCUGCUGUAUAUCUC

Variants of: B1
Test: self-cleavage, relative activity (ratio to wild type); higher = more cleavage; in vitro, sequencing
Procedure, shortened: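 After error-prone PCR and barcoding, CPEB3 ribozyme mutant libraries were transcribed with T7 RNA polymerase at 37°C for 5 hours, then given 15 min with DNase I before an EDTA stop, and they cleaved during both steps. Reverse transcription with template switching preceded Illumina sequencing. Relative activity divides a variant's cleaved/total read fraction by the unmutated ribozyme's. At least 5 reads were required per variant, and three batches were averaged.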

Row | Variant | self-cleavage
1 | U25C C40U A64G | 0.37
2 | G24A U54C A75G | 0.09
3 | G24A U26C G61C | 0.35
4 | U25C A28U U78C | 0.14
5 | U25C C40U U66C | 0.27
6 | U25C C40U U66A | 0.11
7 | U25A G42C A56U A64U | 0.19
8 | G24A A28G U41C A45G U67A A75G | 0.05
9 | U25C G42C U51C U69A | 0.18
10 | G24U U41A A47G U67A | 0.21
11 | U25A C29A U43C U76A U78A | 0.03
12 | U25C C37U U48C U54C C59U A64U U72C | 0.08
13 | U25A A28U U41C U66C | 0.2
14 | G24U A28G C38G A47U | 0.13
15 | G24U G30U U60C | 0.1
16 | U25C A77U C79A | 0.1
17 | U25C A35G G46A A64G | 0.18
18 | C23U A28G U31A | 0.19
19 | U25C A35G U48C U51C | 0.29
20 | U25C A28G U31C U72A U78C | 0.04
21 | U25C A65G U76A A77U | 0.04
22 | G24A A77G U78C | 0.13
23 | U25A C34G A35G A47G U49A A75U | 0.1
24 | U25C A45G U51C C62A | 0.06

Row | Variant | self-cleavage
25 | G24A A45G A65G | 0.51
26 | U25A A57G U67C | 0.12
27 | U25C A28U C37U U48C G52U A56U U78C | 0.07
28 | G24A U26C A35U U43C | 0.29
29 | U25C G42A U54G U72A | 0.13
30 | G24U C29A A57G | 0.15
31 | C23G A35G C38A C39G U76C A77C | 0.04
32 | U25C C32A U41A U51A A64U | 0.16
33 | G24U U41C U43A U58C U60C U66C U67C | 0.14
34 | U25A A45C U54C A56U U74A | 0.37
35 | C23U U25C U48C U51C U67C U69A G70U | 0.04
36 | C23U U25C G52C | 0.21
37 | U25C A47G G53A A57G | 0.17
38 | U25A U66C U72A | 0.13
39 | U25C G30A U67C | 0.13
40 | U25A U31G A45G U54G U78C | 0.04
41 | U25C A28G U51C A57G U69A | 0.21
42 | U25C A35U A65G U66A | 0.18
43 | U25A U58C U60A U67A | 0.21
44 | G24A U26A C29G A56G U78A | 0.04
45 | G24A U48C A56G | 0.23
46 | G24C G61A U67C C81U | 0.12
47 | U25C A47G U67A | 0.07
48 | U25A C40U A56C | 0.06

Row | Variant | self-cleavage
49 | C23U U66C U69A U74C | 0.06
50 | U25C A35U U60A C79G | 0.13
51 | U25A U48A G52U C81G | 0.07
52 | U25C A47U U58C U80C | 0.28
53 | C23G U43C G46A U51C U54C A65G U66C | 0.02
54 | U25C A35U U66C U76A | 0.09
55 | U25C C29A C40G C71U | 0.1
56 | U25C C32U A57C | 0.12
57 | U25A U26C U41C U48A U69C A77G | 0.2
58 | G24C U41C A45C G52C C71U | 0.11
59 | U25C C40A U60A U66C | 0.13
60 | U25C C29U U31A U67C | 0.1
61 | U25A A28G U80C | 0.42
62 | U25A U31C U41A A45U A56G | 0.09
63 | C23U U31C G42A U49C U51A U80C | 0.08
64 | U25C G33U U51G | 0.17
65 | U25A U43A U72G | 0.11
66 | C23U G24A A45G | 0.19
67 | U25C A47G U51C U60A | 0.13
68 | C23U A28G U67A U80C | 0.1
69 | C23G A35U U43A U48C U49C A77U | 0.06
70 | C23U U26C U43A U69G | 0.03
71 | U25C A57G U69C | 0.12
72 | G24A A47G A64G U72C | 0.1

Row | Variant | self-cleavage
73 | U25C A35G C38A U49C U66C | 0.21
74 | G24A U26C A35G | 0.4
75 | C23U C37U U58C U72C | 0.04
76 | C23U U54A U72C U76C | 0.2
77 | U25C A28U U51A U78A | 0.16
78 | U25A U31C U41A U78C | 0.06
79 | G24A A28G U43A A45U U60C | 0.33
80 | U25C G42A U43C U76C | 0.19
81 | U25C C59A A65U U67A | 0.11
82 | C23U G30U A35U A45G U67A | 0.08
83 | U25C G36C U51C U54A | 0.14
84 | U25C A64G U69A U74C | 0.06
85 | G24C U43C A56G U67C | 0.2
86 | U25C A28G U43C A45U U67C | 0.33
87 | C23G U31C U67C A77G | 0.11
88 | U25A U26C U43C U76C | 0.09
89 | U25A U41G U51C U58A U60C | 0.1
90 | C23U C40U U41A G61A | 0.19
91 | G24U U41C A57C U69C | 0.15
92 | C23U C38A G70U | 0.07
93 | U25C C29A A64G U66C | 0.14
94 | U25C C29U U58C U76C | 0.16
95 | C23G C50A A56U | 0.09
96 | G24U U25A U26G U41A U49C U80C | 0.23

Row | Variant | self-cleavage
97 | G24A U26A U41G G53A | 0.23
98 | U25C A28U C40A U58C | 0.14
99 | U25A A45U A56G | 0.09
100 | C23U U43C U48C | 0.41
101 | G24U U58C U66C U67G | 0.16
102 | U25C A57G A65U U76C | 0.08
103 | U25C U26C A45G | 0.19
104 | G24A C34G G55A | 0.27
105 | C23U U43A C50A | 0.14
106 | U25C A35G U41A | 0.31
107 | C23U U48C U69C U72A U74C | 0.09
108 | U25A A45C U69A | 0.11
109 | G24A A35G U78C C79U | 0.46
110 | U25C C39U A45C U80C | 0.28
111 | G24C G73U U78C | 0.21
112 | C23U U49C U69C | 0.1
113 | U25C U26A U43C U60C U67A | 0.07
114 | U25C A56G U67C U76C | 0.32
115 | U25A U31A A56U U74G | 0.12
116 | U25C A57U U78C | 0.28
117 | G24A U74A U80C | 0.38
118 | C23U U26C A65G U67C A75G | 0.08
119 | U25C A45G U49C | 0.17
120 | U25C C38A U41C A57G U76C | 0.22

Row | Variant | self-cleavage
121 | G24U U41A U48C | 0.07
122 | U25A U58A U78A U80C | 0.13
123 | C23U G24A U25C C27A G63U | 0.27
124 | C23U C29U U67C | 0.11
125 | U25A C32G U43C A57G C59A U74A A77C | 0.03
126 | G24A C27A A65G U69C U72C | 0.05
127 | U25C A56C U58G A65G U67A | 0.13
128 | U25C C32U A45G U51A G61U U72G | 0.2
129 | U25A U69A U80A | 0.14
130 | G24A A28G A35G A47G A64G U72C | 0.12
131 | U25C A35G U41C A45G | 0.33
132 | C23G G53U U60A | 0.28
133 | C23U U25A U60C U74C | 0.04
134 | U25A A28G G30A | 0.24
135 | U25A U43C G61A | 0.08
136 | U25C A28U U31A U69A C79A U80C | 0.21
137 | U25C C40U U51C U66C | 0.13
138 | U25C C32U C40G G53A U78A U80A | 0.06
139 | G24C U41A U51C U60C A77G | 0.05
140 | G24U U43C U54A | 0.2
141 | G24A A47G U49A U78A | 0.42
142 | U25C A28U A56U U58C | 0.19
143 | U25A U41G U51C G70A | 0.22
144 | G24A C29G U31C A45G U66C A77G | 0.08

Row | Variant | self-cleavage
145 | C23A U69A U72C | 0.05
146 | C23U A28G U54A A57G | 0.06
147 | G24A C40U A47G A64G U72C | 0.07
148 | U25A A47G U48C U66C U72C | 0.18
149 | U25A A45U A57G A77G | 0.16
150 | C23U C39A U41C U49G U54C U60C | 0.07
151 | G24C U31A A45G U51C | 0.21
152 | U25C A35U U41C U69A | 0.04
153 | U25C A35G U43C U48C U78C | 0.15
154 | U25C G61A U72C | 0.1
155 | G24A A45U U54C | 0.15
156 | U25A A45U U72A | 0.16
157 | U25A U26G A28G A35U | 0.2
158 | U25A U48C U78A | 0.13
159 | U25C G46C U49C | 0.17
160 | U25C A45U U69A | 0.26
161 | U25A U26C U48C | 0.09
162 | U25C A28U U31C A35G | 0.16
163 | U25A G42A U43C U60C U74G | 0.2
164 | U25C U26A U41A C44U U72A | 0.1
165 | U25C A47U A64U A65G | 0.12
166 | C23U G33A U41A A47G U60G A64U | 0.08
167 | U25C A28G A47G | 0.21
